Legend:
[1] = target: T1, human CD73 (SEQ ID NO: 70) (Homo sapiens, UniProt P21589); assay: SPR (Biacore 8K) binding affinity and kinetics to human CD73
T1 construct: purchased BPS Bioscience
T1 sequence (P21589 27-549): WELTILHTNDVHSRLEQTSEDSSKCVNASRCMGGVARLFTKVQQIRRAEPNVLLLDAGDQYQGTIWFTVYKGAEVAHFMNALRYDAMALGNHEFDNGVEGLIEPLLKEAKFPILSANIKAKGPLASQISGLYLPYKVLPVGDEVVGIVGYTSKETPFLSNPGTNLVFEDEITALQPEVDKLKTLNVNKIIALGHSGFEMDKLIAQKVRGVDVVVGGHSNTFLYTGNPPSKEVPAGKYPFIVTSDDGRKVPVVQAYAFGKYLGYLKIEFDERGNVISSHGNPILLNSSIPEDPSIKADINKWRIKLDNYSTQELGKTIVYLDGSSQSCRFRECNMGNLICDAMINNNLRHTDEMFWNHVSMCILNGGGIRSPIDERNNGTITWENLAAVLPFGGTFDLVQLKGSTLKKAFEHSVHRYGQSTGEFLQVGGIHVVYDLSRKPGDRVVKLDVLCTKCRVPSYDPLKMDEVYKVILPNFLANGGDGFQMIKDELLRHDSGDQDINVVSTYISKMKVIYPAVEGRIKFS
Protocol: The SPR running buffer (10 mM HEPES, 150 mM NaCl, 3 mM EDTA and 0.05% v/v Surfactant P20, pH 7.4) was prepared from 10×HBS-EP Buffer (GE Healthcare). Anti-human Fc antibodies (GE Healthcare) were immobilized via amine coupling on all sixteen flow cells of an S series sensor chip CM5 (GE Healthcare). The immobilization levels were ˜9000 RU for all flow cells. The desired capturing level of anti-CD73 antibody was achieved by flowing appropriate concentration of anti-CD73 antibody through the active flow cell of each channel. The non-cleavable ADP analogue APCP (adenosine-5′-(α,β-methylene) diphosphate) with the presence of Zn^2+ can be used to shift the CD73 conformational equilibrium from open towards closed. Therefore, recombinant CD73 was incubated with SPR running buffer in the presence of 100 μM APCP and 10 μM ZnCl2 (closed SPR running buffer) to study the binding of anti-CD73 antibody to the CD73 in the closed conformation. To achieve this, the ABA injection feature in Biacore 8K was used. For open conformation, the ABA injection sequence started with 60 seconds injection of running buffer. Then, CD73 3-fold serial dilution concentration series prepared from CD73 stock (BPS Bioscience) and running buffer were injected for 180 seconds immediately followed by running buffer for 240 seconds. For closed conformation, the normal SPR running buffer was replaced by closed SPR running buffer. Surface was regenerated with 30 seconds injection of 3 M MgCl2. […] Binding affinities and kinetic association and dissociation rate constants to human, cynomolgus, and mouse CD73 in either open or closed conformations are shown in Table 8 below. The results in Table 8 ensure cynomolgus pharmacokinetic data will reflect human pharmacokinetic data.
Binding affinities and kinetic association and dissociation rate constants to human, cynomolgus, and mouse CD73 in either open or closed conformations are shown in Table 9 below.

[2] = target: cynomolgus CD73 (SEQ ID NO: 72); assay: SPR (Biacore 8K) binding affinity and kinetics to cynomolgus CD73
Protocol: (§1) The SPR running buffer (10 mM HEPES, 150 mM NaCl, 3 mM EDTA and 0.05% v/v Surfactant P20, pH 7.4) was prepared from 10×HBS-EP Buffer (GE Healthcare). Anti-human Fc antibodies (GE Healthcare) were immobilized via amine coupling on all sixteen flow cells of an S series sensor chip CM5 (GE Healthcare). The immobilization levels were ˜9000 RU for all flow cells. The desired capturing level of anti-CD73 antibody was achieved by flowing appropriate concentration of anti-CD73 antibody through the active flow cell of each channel. The non-cleavable ADP analogue APCP (adenosine-5′-(α,β-methylene) diphosphate) with the presence of Zn^2+ can be used to shift the CD73 conformational equilibrium from open towards closed. Therefore, recombinant CD73 was incubated with SPR running buffer in the presence of 100 μM APCP and 10 μM ZnCl2 (closed SPR running buffer) to study the binding of anti-CD73 antibody to the CD73 in the closed conformation. To achieve this, the ABA injection feature in Biacore 8K was used. For open conformation, the ABA injection sequence started with 60 seconds injection of running buffer. Then, CD73 3-fold serial dilution concentration series prepared from CD73 stock (BPS Bioscience) and running buffer were injected for 180 seconds immediately followed by running buffer for 240 seconds. […]

[3] = target: T2, mouse CD73 (SEQ ID NO: 71) (Mus musculus, UniProt Q61503); assay: SPR (Biacore 8K) binding affinity and kinetics to mouse CD73; details: as stated in the description
T2 construct: purchased BPS Bioscience
T2 sequence (Q61503 29-551): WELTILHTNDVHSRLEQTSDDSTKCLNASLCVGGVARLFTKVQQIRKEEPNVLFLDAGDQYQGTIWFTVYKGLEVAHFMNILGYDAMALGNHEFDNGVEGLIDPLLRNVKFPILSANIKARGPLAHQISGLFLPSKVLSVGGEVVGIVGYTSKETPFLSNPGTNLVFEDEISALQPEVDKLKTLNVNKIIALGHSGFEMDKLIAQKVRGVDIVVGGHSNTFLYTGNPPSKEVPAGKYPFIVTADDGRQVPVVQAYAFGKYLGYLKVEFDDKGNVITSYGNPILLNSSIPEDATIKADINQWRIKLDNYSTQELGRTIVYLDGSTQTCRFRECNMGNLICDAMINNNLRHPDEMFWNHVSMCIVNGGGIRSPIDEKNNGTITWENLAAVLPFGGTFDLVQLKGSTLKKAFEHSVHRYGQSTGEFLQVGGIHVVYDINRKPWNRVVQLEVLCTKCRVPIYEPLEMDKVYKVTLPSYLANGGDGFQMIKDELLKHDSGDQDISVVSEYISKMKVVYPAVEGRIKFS
Protocol: as §1

[4] = human CD73, open conformation, 25° C.

B1: HzCL25: humanized version of CL25, IgG1/kappa N297A, VH SEQ ID NO:22, VL SEQ ID NO:23; heavy chain SEQ ID NO:24, light chain SEQ ID NO:25 (antibody)
heavy: EVQLVQSGAEVKKPGESLKISCKGSGYTFTSYGLSWVRQMPGKGLEWMGEIYPGSGNTYYNEKFKGQVTISADKSISTAYLQWSSLKASDTAMYYCARYDYLGSSYGFDYWGAGTTVTVSSASTKGPSVFPLAPSSKSTSGGTAALGCLVKDYFPEPVTVSWNSGALTSGVHTFPAVLQSSGLYSLSSVVTVPSSSLGTQTYICNVNHKPSNTKVDKRV[human IgG1 Fc with changes cut from this listing]
light: DIVMTQSPDSLAVSLGERATINCKASQDVSTAVAWYQQKPGQPPKLLIYSASYRYSGVPDRFSGSGSGTDFTLTISSLQAEDVAVYYCQQHYNTPYTFGGGTKLEIKRTVAAPSVFIFPPSDEQLKSGTASVVCLLNNFYPREAKVQWKVDNALQSGNSQESVTEQDSKDSTYSLSSTLTLSKADYEKHKVYACEVTHQGLSSPVTKSFNRGEC
Kd ([1]; human CD73, as stated in the description): ≤ 500 pM | ka [1, 4]: >1e+06 M⁻¹ s⁻¹ | kd [1, 4]: 0.000449 s⁻¹ | Kd ([2]; cynomolgus CD73, as stated in the description): ≤ 500 pM | kd ([2]; cynomolgus CD73, open conformation): 0.000468 s⁻¹ | binding to mouse CD73 [3]: undetectable binding
